Data as given in PMC4336329 (PLoS ONE, 2015).
About 14,000 (4.5%) of roughly 310,000 compounds showed an effect of 50% or more. The effect is printed as a negative number. The list shows a part of the results.

The compounds below were run against human ether-à-go-go-related gene (hERG) potassium channel (human, UniProt Q12809) (assay: primary screen, population patch clamp on CHO cells stably expressing hERG).
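Also: peak tail current of the secondary pulse compared with the same well before compound.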

Chain of human ether-à-go-go-related gene (hERG) potassium channel (Q12809 whole entry, looked up): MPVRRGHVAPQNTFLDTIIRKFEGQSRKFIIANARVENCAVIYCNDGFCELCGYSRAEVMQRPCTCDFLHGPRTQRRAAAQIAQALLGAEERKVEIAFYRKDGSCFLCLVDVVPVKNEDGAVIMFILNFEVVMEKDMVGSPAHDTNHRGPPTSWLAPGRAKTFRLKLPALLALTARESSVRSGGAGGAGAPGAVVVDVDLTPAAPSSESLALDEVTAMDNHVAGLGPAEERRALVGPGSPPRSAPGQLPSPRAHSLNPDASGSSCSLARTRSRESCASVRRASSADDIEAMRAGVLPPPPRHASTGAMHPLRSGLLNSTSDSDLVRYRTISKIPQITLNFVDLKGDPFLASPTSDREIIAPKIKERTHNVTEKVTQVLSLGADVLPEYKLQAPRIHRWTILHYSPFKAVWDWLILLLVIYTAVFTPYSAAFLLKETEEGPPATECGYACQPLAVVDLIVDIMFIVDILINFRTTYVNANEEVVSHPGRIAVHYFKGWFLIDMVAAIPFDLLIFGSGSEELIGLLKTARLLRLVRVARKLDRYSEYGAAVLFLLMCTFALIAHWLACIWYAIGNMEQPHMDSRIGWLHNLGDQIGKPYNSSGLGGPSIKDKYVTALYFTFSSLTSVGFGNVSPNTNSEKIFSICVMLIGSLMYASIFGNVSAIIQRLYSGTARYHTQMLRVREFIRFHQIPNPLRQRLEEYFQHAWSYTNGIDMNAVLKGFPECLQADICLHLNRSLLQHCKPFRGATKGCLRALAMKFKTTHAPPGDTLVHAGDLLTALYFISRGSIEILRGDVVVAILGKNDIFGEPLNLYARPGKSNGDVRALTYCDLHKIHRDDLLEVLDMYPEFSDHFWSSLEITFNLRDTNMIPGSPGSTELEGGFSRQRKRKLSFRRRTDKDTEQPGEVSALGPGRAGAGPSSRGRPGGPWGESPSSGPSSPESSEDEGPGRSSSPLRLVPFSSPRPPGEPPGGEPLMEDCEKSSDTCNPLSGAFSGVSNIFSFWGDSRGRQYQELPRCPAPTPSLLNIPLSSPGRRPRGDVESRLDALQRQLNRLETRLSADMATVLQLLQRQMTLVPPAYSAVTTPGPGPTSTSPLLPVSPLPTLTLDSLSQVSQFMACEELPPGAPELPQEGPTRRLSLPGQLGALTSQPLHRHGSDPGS

SMILES | hERG current change (%, negative = inhibition) at 10uM
Cc1ccc(C)c(OCCC(=O)N2CCN(S(=O)(=O)c3cc(F)ccc3F)CC2)c1 | -18%
Cc1c(C)n(CCC(=O)O)c2ccccc12 | 27.2%
O=c1c2ccccc2nc(/C=C/c2ccccc2)n1CCCO | -8.23%
CCCCn1c(SCC(=O)Nc2ccc3c(c2)OCO3)nc2c1c(=O)n(C)c(=O)n2C | -17.2%
CCn1c(SCC(=O)N/N=C/C=C/c2ccco2)nc2ccccc21 | -39.1%
CCCCN1CC(=O)N2[C@H](c3ccc(Cl)cc3)[C@@H]3C(=O)N(CC)C(=O)[C@@H]3[C@]2(C)C1=O | -11.1%
O=C(O)c1cn(Cc2cccnc2)c(=O)c2ccccc12 | 13.5%
O=C(O)CC(NC(=O)Cc1ccccc1)c1ccccc1 (stereo not drawn) | 11.1%
Cc1ccc(S(=O)(=O)NC2=NCN(C)CN2)cc1[N+](=O)[O-] | -13.3%
CC(=NCCc1ccccc1)C1=C(O)CCC1=O | 3.34%
O=C(CS(=O)CC(=O)N(CC(=O)NC1CCCC1)c1ccc2c(c1)OCCO2)Nc1ccc(F)cc1 (stereo not drawn) | -10.6%
C=CCNC(=S)NN=C1CCCCCCC1 | 10.6%
Cc1ccc(-c2csc(NC(=O)CN3CCOCC3)n2)cc1C | -3.81%
COC(=O)c1ccc(NC(=O)CCn2cccc2)cc1 | 4.38%
COC(=O)C1=C(C)N(Cc2ccccc2)C(=O)N[C@H]1c1cccc(C(F)(F)F)c1 | -8.04%
Cc1[nH]c(C)c(S(=O)(=O)N2c3ccccc3CC2C)c1C(=O)N1CCCCC1 (stereo not drawn) | 2.21%
CCOc1ccc(-c2cc(CCCC(=O)NCc3ccc(C)cc3)no2)cc1 | 14.5%
CC(=O)N1CCCc2cc(S(=O)(=O)N3CCCC(C(=O)Nc4ccc(C)cc4C)C3)ccc21 (stereo not drawn) | 13.6%
Cc1ccc(N2C(=O)CC(Sc3ccccc3C(=O)O)C2=O)cc1 (stereo not drawn) | 0.908%
O=C(COC(=O)c1cc([N+](=O)[O-])ccc1Cl)NCCc1ccccc1 | -8.52%
N#Cc1c(-c2ccc(Cl)cc2)ccnc1N1CCOCC1 | 3.33%
O=C(Nc1ccc(Cl)cc1)O/N=C(\c1ccccc1)c1ccccn1 | 1.65%

SMILES | hERG current change (%, negative = inhibition) at 10uM
CCOC(=O)c1sc2nc(C)c3c(c2c1N)CC(C)(C)OC3 | 13.4%
CC1=CC(C2CC(=O)N(c3ccc(C)cc3)C2=O)CC2C(=O)N(c3ccc(C)cc3)C(=O)C12 (stereo not drawn) | -6.41%
COc1ccc(OCC(=O)Nc2ccc(N3CCOCC3)cc2)c([N+](=O)[O-])c1 | 12.1%
Cc1ccc(C(=O)NCCc2n[nH]c(=S)n2C)cc1 | 11.5%
Cc1nc(-c2ccccc2)sc1C(=O)Nc1ccccc1F | 14.1%
O=C(Nc1ccc2nc(-c3ccco3)[nH]c2c1)c1ccco1 | -5.43%
Cc1cc(C(=O)NCc2ccc(C(=O)O)o2)c(C)o1 | 8.35%
NC(=O)Cn1c(-c2nonc2N)nc2ccccc21 | 19.2%
CCOc1ccc(Nc2c3ccccc3nc3ccccc23)cc1 | -42.4%
O=C(CSc1nnc(Nc2ccccc2)s1)NC1CC1 | -8.25%
COc1ccc(NS(=O)(=O)c2cccc(C(=O)N3CCN(c4ccccc4O)CC3)c2)cc1 | -14.9%
CC(=O)c1ccc(OC(=O)CCc2ccccc2)cc1 | 1.84%
Cn1nc(C(=O)NNC(=O)CCOc2ccc(C(C)(C)C)cc2)c2ccccc2c1=O | -46.7%
CC(=O)Nc1ccc(C(=O)OCCc2ccccc2)cc1 | -5.59%
CCC1(CC)NC(=O)N(CC(=O)OCc2nc3cc(C(=O)OC)ccc3c(=O)[nH]2)C1=O | 5.39%
Cc1c(OCC(=O)NCCCN2CCCC2=O)ccc2c3c(c(=O)oc12)CCCC3 | -8.86%
NC(=O)c1cc2ccccc2o/c1=N/NC(=O)c1ccccc1 | -10.6%
O=S(=O)(Nc1ccc(-n2cnnn2)cc1)c1ccccc1F | 7.1%
CCN1CCN(CCCCSc2ccccc2)CC1.O=C(O)C(=O)O | -28.3%
Cc1ccc(N(CC(=O)NC2CCCCC2C)S(=O)(=O)c2c(C)nn(C)c2C)cc1 (stereo not drawn) | 3.67%
COC(=O)c1ccc(NC(=O)c2ccc3c(c2)NC(=O)C2CCCN32)cc1 (stereo not drawn) | -2.49%
O=C(N/N=C/c1c[nH]c2ccc(Br)cc12)c1ccccn1 | 21.5%

SMILES | hERG current change (%, negative = inhibition) at 10uM
COc1cccc(OC)c1OCCCSc1nc(C)cc(=O)[nH]1 | -39.2%
Cc1cc(C)c2[nH]c(=O)c(C(c3nnnn3Cc3ccc4c(c3)OCO4)N3CCCC3)cc2c1 (stereo not drawn) | -6.45%
CC1(C)CC2CC(C)(CN2CC(O)c2ccccc2)C1.O=C(O)C(=O)O (stereo not drawn) | -42.5%
CC(C)c1ccc(S(=O)(=O)N2CCN(C(C)C(=O)Nc3ccccc3-c3ccccc3)CC2)cc1 (stereo not drawn) | 12%
O=[N+]([O-])c1ccc(-c2nnc([S-])n2-c2ccccc2)cc1.[Na+] | 11.3%
CC(Oc1ccccc1)C(=O)Nc1nnc(S(=O)(=O)N(C)c2ccccc2)s1 (stereo not drawn) | 5.26%
COc1ccc(S(=O)(=O)N2CCC(C(=O)N3CCc4ccccc4C3)CC2)cc1 | -42.6%
O=C(NCc1ccc(Cl)cc1)c1cc2c(nc3sccn32)s1 | 12.9%
O=C(CCN1C(=O)[C@@H]2Cc3ccccc3CN2C1=O)NCc1ccc(Cl)cc1 | -64.2%
CN(C)CCNc1nc(S(=O)(=O)c2ccccc2)c(Cl)s1 | -56.2%
CCCOCn1cc(F)c(=O)[nH]c1=O | 19.3%
COc1ccc(CN(C2CCCC2)S(=O)(=O)c2ccc(-n3cnnn3)cc2)cc1 | -43.8%
COc1cccc(N2C(=O)CC(c3c[nH]c4ccccc34)C2=O)c1 (stereo not drawn) | 20%
O=C(CSc1nnc(COc2cccc3ccccc23)o1)N1c2ccccc2CCc2ccccc21 | 7.68%
CC(Oc1ccc(Cl)cc1)C(=O)Nc1sccc1C(N)=O (stereo not drawn) | -10.4%
Cc1ccc(-c2nn(-c3ccccc3)cc2C(=O)NCC2CCCO2)cc1 (stereo not drawn) | -25.8%
Cc1ccc(S(=O)(=O)NCCC(=O)NC2CCCC2)cc1 | -3.1%
Cc1cc(NC(=O)CSc2ccc3nnc(CCNC(=O)c4ccccc4)n3n2)no1 | 2.86%
C=C1CSc2nc3ccccc3c(=O)n21 | 10.5%
COc1cc(-c2nc3n(c(=O)c2C#N)CCS3)cc(OC)c1OC | 8.83%
CCCC1=[N+](CC(=O)c2ccc(Br)cc2)CCn2cccc21.[Br-] | -6.09%
Cc1ccc(NC(=O)CO/N=C(\N)c2nonc2N)cc1C | -0.00012%

SMILES | hERG current change (%, negative = inhibition) at 10uM
CC(C)(C)C(=O)c1cn(CC(=O)NCc2ccco2)c2ccccc12 | 24.1%
CN1CCN(S(=O)(=O)c2cccc(S(=O)(=O)c3cccc(S(=O)(=O)N4CCN(C)CC4)c3)c2)CC1 | -4.34%
O=C(NCc1nc2ccccc2[nH]1)c1cccc(S(=O)(=O)N2CCCCC2)c1 | 13.9%
Cc1ccc(-n2c(-c3cccc(C)c3)n[nH]c2=S)cc1 | 9.94%
Cc1ccc(-n2nc(C(=O)O)cc2-c2ccc(Cl)cc2)cc1 | 24.9%
COc1cc(/C=c2\s/c(=C(/C#N)C(=O)N3CCCC3)n(-c3ccccc3)c2=O)ccc1O | -4.52%
C/C(=N\O)c1ccn(S(=O)(=O)c2ccc(Cl)cc2)c1 | 2.22%
CNC(=O)NC(=O)CSc1ccc(NC(C)=O)cc1 | 14.5%
CC(=O)c1ccc(S(=O)(=O)NCC(=O)N2CCN(C/C=C/c3ccccc3)CC2)cc1 | -38.7%
O=C(NCCCN1CCCC1=O)c1ccc(OC(F)(F)F)cc1 | -0.372%
Cc1ccc(Cl)cc1NC(=O)c1cc(S(=O)(=O)N2CCOCC2)cn1C | 5.1%
O=C1N(CN2CCOCC2)c2ccccc2C12OCC(CCl)O2 (stereo not drawn) | -14.1%
Cc1nc2c(sc3nc4c(cc32)COC(C)(C)C4)c(=O)n1CC(=O)NCc1ccco1 | -4.06%
CC(C)(C)n1nc(Cc2cccc3ccccc23)c(C#N)c1N | 3.77%
COc1ccc(S(=O)(=O)N(CC(=O)NCC2CCCO2)c2ccc(F)cc2)cc1OC (stereo not drawn) | 3.83%
COc1ccc2cc(/C=N/NC(=O)c3ccc(CN(c4cccc(Cl)c4Cl)S(C)(=O)=O)cc3)c(Cl)nc2c1 | 16.5%
CCOc1ccccc1N1CCN(C(=O)c2ccc3[nH]c4c(c3c2)CCCC4)CC1 | 23%
COc1ccccc1-n1c(C)cc(SC)c(C(C)=O)c1=S | -4.83%
COc1cc(OC)c(C(=O)OCC(=O)NC2CCCC2)cc1OC | 19.7%
O=c1[nH]cc(S(=O)(=O)Nc2ccc3c(c2)OCO3)c(=O)[nH]1 | -17.8%
O=C(Nc1nccs1)c1ccc(COc2ccc(Cl)cc2)o1 | 5.18%
